In PubChem BioAssay AID445 (National Center for Advancing Translational Sciences (NCATS), 2006):
Out of some 110,000 compounds screened, about 40 (0.04%) were called active. Inconclusive results, whose numbers are uncertain, are shown with a selection of clear calls. Calls come from the whole dose curve; as a rule, active = well fitted curve in the direction sought with a large enough effect in the signal ratio (not every such curve was filed as active); inconclusive = small, poorly fitted or top-dose-only effect, or a change in a side signal; inactive = flat fitted curve, though single readings scatter; the % refers to the signal ratio. Potencies of inconclusive entries are doubtful fits and often do not repeat.

Test: IkB Signaling;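 for IkBa stabilization activation: 0% = basal untreated cells and 100% = reference inhibitor full response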
Details: ABC-DLBCL IkBa-CBG/CBR dual luciferase ratio (green luciferase fused to IkBa over red control in OCI-Ly3 lymphoma cells), 4 h; IkBa stabilization activation: at 57.1 µM (top of the series), scaled: untreated 0%, proteasome inhibitor 100% unless noted
Outline: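 Curves were fitted separately to fusion (green), unfused (red) and ratio luminescence, then classed by r2, magnitude and activity. Cells: OCI-Ly3, 4 h compound plus doxycycline at 37C; 10 uM MG-132 defined full response.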
Potency is the fitted concentration of half-maximal effect.

| Structure (SMILES) | IkBa stabilization activation | Potency |
| --- | --- | --- |
| COc1ccc(CCNC(=O)CCn2c(=O)c3cccn3c3ccc(F)cc32)cc1OC | inconclusive: 3.39% [signal inhibitor] | – |
| Cc1noc(C)c1-c1nc(NCc2cccs2)c2ccccc2n1 | inactive: -0.115% [at 11.4 µM, scaled: untreated 0%, proteasome inhibitor 100%] | – |
| CCOC(=O)c1ccc(CN(Cc2ccc(Cl)cc2Cl)S(=O)(=O)c2cccc(Cl)c2)cc1 | inconclusive: 1.7% [signal inhibitor] | – |
| O=S1(=O)N=C(Nc2nc3c(s2)CCCC3)c2ccccc21 | – | inconclusive: 31.6 µM [rising, partial curve] |
| O=C(O)CCSc1nnc(-c2ccc(Cl)cc2Cl)o1 | – | inconclusive: 0.794 µM [signal inhibitor, full curve] |
| Cc1ccc2nc(N(Cc3cccnc3)C(=O)CCc3ccccc3)sc2c1 | inconclusive: 0.988% [signal inhibitor] | – |
| CCn1c(SCC(=O)Nc2nc(-c3ccccc3)cs2)nnc1-c1ccccc1 | inconclusive: 1.21% [signal inhibitor] | – |
| Cc1ccc(-n2nnnc2SCCNS(=O)(=O)c2ccccc2)cc1C | inconclusive: -2.19% [signal inhibitor] | – |
| Cc1nn(-c2ccccc2)c2sc(C(=O)N(CC(=O)NC3CCCC3)Cc3ccco3)cc12 | inconclusive: 3.79% [signal inhibitor] | – |
| CCc1ccc(NC(=O)c2cc(CN3CCOCC3)on2)cc1 | inactive | – |
| O=C(CCn1c(=O)c2ccccc2n(Cc2ccc(Cl)cc2)c1=O)NCc1ccc2c(c1)OCO2 | inactive | – |
| CCCCC(=O)Nc1cccc(-c2nc3ccccc3s2)c1 | inconclusive: 0.169% [signal inhibitor] | – |
| Cc1cc(C)n2nc3ccccc3c2n1 | inactive | – |
| COc1ncc2nc(-c3cccs3)c(=O)n(Cc3cccs3)c2n1 | inactive: 0.723% [at 11.4 µM, scaled: untreated 0%, proteasome inhibitor 100%] | – |
| Cc1cccc(-n2ccnc2SCC(=O)Nc2cc(C(F)(F)F)ccc2Cl)c1 | inconclusive: 0.435% [signal inhibitor] | – |
| CCCCN(C)CC(O)Cn1cc(/C=C/C(=O)c2ccc(OCC)cc2)c2ccccc21 (centres undefined) | inconclusive: -2.71% [signal inhibitor] | – |
| O=C(c1ccc2nc(N3CCOCC3)sc2c1)N1CCCC1 | inactive | – |
| O=C(NCc1ccc(F)cc1Cl)c1ccc(CSCc2ccccc2Cl)o1 | inconclusive: -2.88% [signal inhibitor] | – |
| CC(C)CCn1c(=O)c2sccc2n2c(CCCC(=O)Nc3ccc(F)c(Cl)c3)nnc12 | inactive | – |
